Data taken from publication PMC4336329 (PLoS ONE, 2015).
About 14,000 (4.5%) of roughly 310,000 compounds showed an effect of 50% or more. Effects have a minus sign here. Some of the results follow.

Target: human ether-à-go-go-related gene (hERG) potassium channel (human, UniProt Q12809)
Test: primary screen, population patch clamp on CHO cells stably expressing hERG
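Further: peak tail current of the secondary pulse compared with the same well before compound.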

Chain of human ether-à-go-go-related gene (hERG) potassium channel (Q12809 whole entry, looked up): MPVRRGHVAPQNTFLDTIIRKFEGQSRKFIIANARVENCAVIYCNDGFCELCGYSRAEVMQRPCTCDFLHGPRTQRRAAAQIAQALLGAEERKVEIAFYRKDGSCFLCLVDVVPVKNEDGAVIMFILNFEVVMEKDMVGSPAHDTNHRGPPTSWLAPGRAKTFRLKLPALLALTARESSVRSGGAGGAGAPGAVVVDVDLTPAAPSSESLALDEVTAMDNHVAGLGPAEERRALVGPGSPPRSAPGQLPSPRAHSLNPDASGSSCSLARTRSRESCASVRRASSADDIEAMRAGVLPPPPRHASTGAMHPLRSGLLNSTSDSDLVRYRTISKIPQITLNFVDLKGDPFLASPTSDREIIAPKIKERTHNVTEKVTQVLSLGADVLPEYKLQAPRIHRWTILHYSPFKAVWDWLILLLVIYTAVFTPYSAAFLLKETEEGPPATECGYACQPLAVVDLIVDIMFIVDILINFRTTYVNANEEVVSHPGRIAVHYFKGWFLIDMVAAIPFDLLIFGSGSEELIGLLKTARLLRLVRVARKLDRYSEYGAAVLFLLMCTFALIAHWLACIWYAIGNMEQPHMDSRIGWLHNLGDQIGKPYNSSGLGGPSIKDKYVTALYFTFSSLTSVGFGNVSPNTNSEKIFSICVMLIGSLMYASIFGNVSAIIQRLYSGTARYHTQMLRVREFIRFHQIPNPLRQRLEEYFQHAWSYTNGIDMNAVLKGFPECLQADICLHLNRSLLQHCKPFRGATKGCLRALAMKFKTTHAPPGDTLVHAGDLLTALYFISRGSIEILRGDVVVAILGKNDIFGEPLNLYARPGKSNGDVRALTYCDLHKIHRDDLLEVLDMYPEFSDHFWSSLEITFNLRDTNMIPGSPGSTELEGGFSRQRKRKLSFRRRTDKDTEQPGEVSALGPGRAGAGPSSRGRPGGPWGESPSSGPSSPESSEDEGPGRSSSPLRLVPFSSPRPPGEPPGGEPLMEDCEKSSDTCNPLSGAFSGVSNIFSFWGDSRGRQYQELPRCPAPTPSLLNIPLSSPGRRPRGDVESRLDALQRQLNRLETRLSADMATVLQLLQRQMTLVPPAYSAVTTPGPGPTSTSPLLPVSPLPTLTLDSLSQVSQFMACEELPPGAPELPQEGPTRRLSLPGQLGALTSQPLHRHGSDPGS

Structure (SMILES) | hERG current change (%, negative = inhibition) at 10uM [%]
Nc1nc2cc(S(=O)(=O)NC3=NCCCCC3)ccc2s1 | 7.55
COc1cccc(C(=O)C2CCCN(Cc3ccc4nsnc4c3)C2)c1 (stereo not shown) | -26
O=c1[nH]ncn2cccc12 | 24.1
O=C(C1=C(O)C(=O)N(c2nc3ccc(Cl)cc3s2)C1c1ccco1)c1ccco1 (stereo not shown) | -3.5
CC(C)CN(C(=O)CN1CCN(c2ccc(F)cc2)CC1)c1c(N)n(CC(C)C)c(=O)[nH]c1=O | 0.793
Cc1ccc(Cn2c(NC(=O)c3ccco3)nc3ccccc32)cc1 | 19.8
O=C(CNC(=O)c1ccccc1Br)N/N=C\c1cc([N+](=O)[O-])cc(Br)c1O | -13.8
Nc1cc(=O)[nH]c(SCC(=O)c2ccc(O)cc2O)n1 | 17.4
Cc1ccc2nc(C)c(CN3CCN(c4ccc([N+](=O)[O-])cc4Cl)CC3)n2c1 | -69.3
COc1ccc(-n2c(COc3cccc(C)c3)n[nH]c2=S)cc1 | 13.8
Cc1cccc(N(CC(=O)NC(C)(C)C)C(=O)CNC(=O)c2cccs2)c1C | 8.9
N#Cc1c(-c2ccncc2)cc(-c2ccc(F)cc2)nc1N | -8.81
CCOC(=O)c1c(C)n(C)c2ccc(OCC(O)CNC(CC)CO)cc12 (stereo not shown) | -7.11
O=C(Nc1ccc(F)cc1)c1nc[nH]c1C(=O)Nc1ccc([N+](=O)[O-])cc1 | 17.6
Cc1c2cnn(CC(=O)Nc3c(F)c(F)cc(F)c3F)c(=O)c2c(C)n1Cc1ccccc1F | -10.1
CC(C)c1nc2cc(C(=O)N3CCN(c4cnccn4)CC3)ccc2o1 | 8.52
O=S(=O)(Nc1ccc(Cl)cc1)c1cccc2cccnc12 | 12.8
Cc1ccc(-c2cc(C(=O)NCc3ccco3)c3ccccc3n2)s1 | -15
COc1cccc(/C=N/n2c(=S)n(C)c3ccccc32)c1OC | 5.65
COc1ccc(-c2nnc(SC(C)C(=O)Nc3cccc(Cl)c3)o2)cc1 (stereo not shown) | -7
NC(=O)c1ccccc1N/C=C/C(=O)c1ccccc1 | 0.363
Cn1cc(/C=C(\NC(=O)c2ccccc2)C(=O)NCCN2CCOCC2)c2ccccc21 | 4.78

Structure (SMILES) | hERG current change (%, negative = inhibition) at 10uM [%]
O=C(OCC(=O)N(C1CCCCC1)C1CCCCC1)c1ccncc1 | -34.6
C/C(=N\NC(=O)CNC(=O)C(c1ccccc1)c1ccccc1)c1ccc(C)cc1 | -9.33
CCOC(=O)c1c(/N=C/C2=C(O)CCCC2=O)sc(C)c1C | -10.7
O=C(Cn1c(=O)n(-c2cccc(C(F)(F)F)c2)c(=O)c2sccc21)NCC1CCCO1 (stereo not shown) | 24.9
Cc1c(NC(=O)COC(=O)Cn2cc(C(F)(F)F)ccc2=O)cccc1[N+](=O)[O-] | -10
Cc1cc(C)nc(NC(=O)c2csnn2)c1 | 17.8
COc1ccc(NC(=S)N2CCC(c3nc4ccccc4[nH]3)CC2)c(OC)c1 | -8.79
C=CCNc1nc(-c2ccc(O)c(C(N)=O)c2)cs1.Cl | -1.47
CC(=O)N1N=C(c2c(-c3ccccc3)c3cc(Br)ccc3[nH]c2=O)CC1c1ccco1 (stereo not shown) | -2.19
Cn1c(-c2ccccc2)cc(=O)c2ccccc21 | -2.4
COc1ccc(C2C(C(=O)c3ccco3)=C(O)C(=O)N2c2nnc(C)s2)cc1 (stereo not shown) | 15.4
COC(=O)c1ccsc1-n1cc(C#N)c(=O)n(C)c1=O | 11.9
Cn1cc(CN2CCC(CO)CC2)c(-c2ccc(Oc3ccccc3)cc2)n1 | -67.5
Cc1cccc(NC(=S)Nc2ccc(N3CCOCC3)cc2)c1C | 0.0685
Cc1ccc(C(=O)N/N=C/c2ccc(OC(=O)c3ccccc3Cl)cc2)cn1 | 14.4
FC(F)(F)C1CC(c2cccs2)Nc2ncnn21 (stereo not shown) | 10
O=C1c2ccccc2C(=O)N1CCC(c1ccc(F)cc1)c1ccco1 (stereo not shown) | -6.1
Cc1nn(Cc2cccc3ccccc23)c(C)c1NC(=O)c1cccnc1 | 6.74
O=C(OCC(=O)c1ccccc1Br)c1ccccn1 | 8.23
C(=N\c1ncnc2sccc12)/NOCc1ccccc1 | -12.6
Cc1cc(NC(=O)C2C3C(=O)N(Cc4ccc(Cl)cc4)C(C(=O)NC(C)(C)C)C34C=CC2(C)O4)no1 (stereo not shown) | 15.7
COC(=O)c1ccc(CSc2nnnn2-c2ccc(C)cc2C)o1 | -18.5

Structure (SMILES) | hERG current change (%, negative = inhibition) at 10uM [%]
O=C(CSc1ncnc2c1cnn2-c1ccccc1)NC1CCS(=O)(=O)C1 (stereo not shown) | -10.2
COc1ccc(CNC(=O)C2CC(c3ccc(OC)cc3)=NO2)cc1 (stereo not shown) | 5.69
NC(=S)NCc1cccnc1 | 24.7
CCCCCCCOc1ccc(OC(=O)c2cccnc2)cc1 | 13.8
O=C1NC(c2ccccc2)=C(c2nc3ccccc3s2)C(c2ccccc2)N1 (stereo not shown) | -8.6
CCO[C@H]1OC(C(=O)N2CCN(Cc3ccc4c(c3)OCO4)CC2)=C[C@@H](C(C)(C)C)[C@@H]1CCCO | -40.6
O=C(c1ccc(Cl)c(S(=O)(=O)NCc2cccnc2)c1)N1CCCC1 | 7.22
COc1ccc(OC)c(NC(=O)CN2CCc3ccccc3C2)c1 | 0.823
CCOC(=O)N1CCN(C(=O)c2ccc(OC)cc2)CC1 | 19.8
COc1ccc(-n2c(C)c(C(C)=O)c3cc(OCC(N)=O)ccc32)cc1 | -12.9
C=CCn1c(Cc2ccc(OC)cc2)nnc1SCc1nc2ccccc2c(=O)[nH]1 | -11.7
Cc1ccc(-c2ccc(/C=C3\SC(N4CCOCC4)=NC3=O)o2)cc1 | -64.8
Cc1cc(Br)ccc1N=C1C(=O)Nc2ccccc21 | 7.54
Cc1cc(OC(C)C(=O)NC(Cc2c[nH]c3ccc(O)cc23)C(=O)O)c2c(C)cc(=O)oc2c1 (stereo not shown) | 6.77
COc1ccc(-c2noc(C3CCCN(C(=O)CCc4ccccc4)C3)n2)cc1 (stereo not shown) | -30.7
O=C(COc1ccc2ccccc2c1)N[C@@H](C(=O)O)c1ccc(O)cc1 | 20.5
Cc1ccc(NC(=O)CSCC(=O)OCc2cc(=O)oc3cc(O)ccc23)c(C)c1 | -53.2
COc1ccc(-n2c(Cc3cccn3C)nnc2SCC(=O)Nc2cc(Cl)ccc2OC)cc1 | -97.9
CCC(=O)NC(=S)NNC(=O)COc1ccc(Br)cc1 | 14.4
O=c1ccccn1CCOc1ccccc1Cl | 4.55
COc1ccccc1C(=O)Nc1ccc2c(c1)CCCN2C(=O)c1ccccc1 | -39.8
Cc1cc(NC(=O)CSc2nnc(-c3ccccc3Cl)o2)no1 | 14.7

Structure (SMILES) | hERG current change (%, negative = inhibition) at 10uM [%]
CCC1(C)Cc2ccccc2-c2[nH]c(=S)[nH]c(=O)c21 (stereo not shown) | 14
COc1cccc(N2CCN(C(=O)c3ccc(N4C(=O)NC5CC4(C)Oc4ccccc45)cc3)CC2)c1 (stereo not shown) | 4.64
Cc1c(C(=O)OCC(=O)Nc2ccc(C(=O)N(C)C)cc2)oc2ccccc12 | -6.16
CC(C)CCn1c(SCC(=O)OCn2nnc3ccccc3c2=O)nc2ccccc2c1=O | -16.2
CCOc1ccc(OCC)c(S(=O)(=O)n2ccnc2C)c1 | 11.5
Cc1nn(Cc2ccc(F)cc2)c(C)c1NC(=O)c1cccnc1Cl | 7.72
CCOC(=O)c1c(NC(=O)C2CCCO2)sc(C(N)=O)c1C (stereo not shown) | 2.64
Cc1cc2ccccc2c(=O)n1CC(=O)NCCC1=CCCCC1 | 8.01
COc1ccc(C(=O)C2CCCN(C(=O)c3ccc(OC)o3)C2)c(C)c1 (stereo not shown) | -24.3
Cc1ccc(-c2nc(C#N)c(NCc3cccc4c3OCO4)o2)cc1 | -13.9
Cc1[nH]n(-c2ccccc2)c(=O)c1C(=O)c1ccccc1 | 8.7
CC(C)Cn1c(-c2cccs2)nc2ccccc21 | -23.3
COc1ccc(CNCCc2c[nH]c3ccccc23)c(OC)c1OC.O=C(O)C(=O)O | -7.44
Cc1ccnc(NC(=O)CCC(=O)N(CC(=O)NC(C)(C)C)Cc2ccc3c(c2)OCO3)c1 | 1.71
COc1cc(NC(=O)c2ccccc2Cl)c2ncccc2c1 | -2.71
CCOc1ccc(S(=O)(=O)NCCC(=O)NCC2CCCO2)cc1 (stereo not shown) | 8.51
COC(=O)COc1ccc(S(=O)(=O)Nc2ccc3c(c2)OCO3)cc1 | 11.6
CCn1nc(C)cc1C(=O)N1CCCC(C(=O)c2ccc(OC)cc2C)C1 (stereo not shown) | 3.32
O=C(CCc1ccccc1)N1CCN(c2ccccn2)CC1 | -9.9
O=C(Cn1cccn1)N1CCCC(Nc2ccc(F)c(F)c2)C1 (stereo not shown) | -30.9
O=C(NC(=S)Nc1ncccn1)c1ccc(Cl)cc1Cl | 16.1
CCOC(=O)c1cc(-c2cccs2)nc2onc(C)c12 | 9.35
